Among all 310,000 compounds or so, about 2,200 (0.71%) showed an effect of 50% or more. The effect is printed as a negative number. The list shows a part of the results. Where a SMILES comes first, the peptide text is derived from it. The star is where a group is joined. OBn = c1ccc(CO*)cc1

In the assay the target is human ether-à-go-go-related gene (hERG) potassium channel (human, UniProt Q12809). The assay can be described thus: primary screen, population patch clamp on CHO cells stably expressing hERG.
Sequence of human ether-à-go-go-related gene (hERG) potassium channel (Q12809 whole entry, looked up): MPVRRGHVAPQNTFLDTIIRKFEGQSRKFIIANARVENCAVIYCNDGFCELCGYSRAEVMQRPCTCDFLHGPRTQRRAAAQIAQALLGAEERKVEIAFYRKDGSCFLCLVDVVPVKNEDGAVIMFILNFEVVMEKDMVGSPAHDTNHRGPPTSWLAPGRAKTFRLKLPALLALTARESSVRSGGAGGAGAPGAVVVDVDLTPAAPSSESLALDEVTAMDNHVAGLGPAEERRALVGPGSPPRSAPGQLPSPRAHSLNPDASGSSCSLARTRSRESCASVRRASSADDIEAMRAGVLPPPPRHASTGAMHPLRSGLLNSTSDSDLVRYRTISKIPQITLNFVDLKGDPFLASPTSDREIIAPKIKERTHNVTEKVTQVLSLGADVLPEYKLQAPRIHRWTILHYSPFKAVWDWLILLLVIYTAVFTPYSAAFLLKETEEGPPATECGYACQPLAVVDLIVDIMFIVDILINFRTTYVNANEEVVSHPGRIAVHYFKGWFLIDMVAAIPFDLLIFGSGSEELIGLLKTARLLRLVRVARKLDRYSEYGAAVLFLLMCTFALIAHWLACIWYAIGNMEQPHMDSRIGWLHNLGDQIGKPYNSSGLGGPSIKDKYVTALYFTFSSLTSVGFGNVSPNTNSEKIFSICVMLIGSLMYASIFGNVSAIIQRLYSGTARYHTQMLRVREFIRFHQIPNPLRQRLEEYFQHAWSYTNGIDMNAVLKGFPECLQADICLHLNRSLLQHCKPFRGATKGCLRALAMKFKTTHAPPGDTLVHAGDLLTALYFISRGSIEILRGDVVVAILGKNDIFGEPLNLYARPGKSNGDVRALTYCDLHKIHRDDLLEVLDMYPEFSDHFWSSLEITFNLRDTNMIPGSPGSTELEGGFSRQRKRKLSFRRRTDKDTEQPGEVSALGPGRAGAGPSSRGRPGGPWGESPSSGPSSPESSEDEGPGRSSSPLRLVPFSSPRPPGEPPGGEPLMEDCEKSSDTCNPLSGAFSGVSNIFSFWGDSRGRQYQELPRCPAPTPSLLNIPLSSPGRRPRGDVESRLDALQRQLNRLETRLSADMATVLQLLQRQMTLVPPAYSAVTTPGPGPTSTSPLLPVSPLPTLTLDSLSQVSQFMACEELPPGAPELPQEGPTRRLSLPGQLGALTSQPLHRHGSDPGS
Take `COc1ccc2oc(=O)c(-c3csc(Nc4ccc(O)cc4)n3)cc2c1`: the “hERG current change (%, negative = inhibition) at 1uM” value was 4.31%.

As for `COC(=O)/C(C#N)=C/c1c(-c2ccccc2)nc2n1CCS2`, the “hERG current change (%, negative = inhibition) at 1uM” value was 7.49%.

For `Nc1nc(CN2CCOCC2)cs1`, the “hERG current change (%, negative = inhibition) at 1uM” value is given as 7.23%.

For the compound `COc1ccc(-c2cnc3nc[nH]c(=O)c3n2)cc1`, the “hERG current change (%, negative = inhibition) at 1uM” value was found to be 9.68%.

Consider `COc1ccc(-c2cc(C(F)(F)F)n3nc(C(=O)Nc4cc(C)on4)cc3n2)cc1OC`, for which the “hERG current change (%, negative = inhibition) at 1uM” value turned out to be 6.68%.

Consider `COc1ccc(C)cc1S(=O)(=O)N1CCN(S(=O)(=O)c2cc(C(=O)O)ccc2C)CC1`, for which the “hERG current change (%, negative = inhibition) at 1uM” value came to 9.34%.

On to `CCCC/C(C)=N/NC(=O)NC1CCCCC1`, for which the “hERG current change (%, negative = inhibition) at 1uM” value turned out to be 11.1%.

As for `O=c1[nH][nH]c2ccccc2c1=O`, the “hERG current change (%, negative = inhibition) at 1uM” value was 14.8%.

As to `Cc1ccc(/C=N/n2c(C)cc(C)c(C#N)c2=O)cc1`, the “hERG current change (%, negative = inhibition) at 1uM” value is on record as 6.86%.

For `COCCn1c(/C=C/c2ccccc2)nc2ccccc21`, the “hERG current change (%, negative = inhibition) at 1uM” value is recorded as -0.785%.

Regarding `O=C(NCCCc1ccccc1)c1ccc(CS(=O)Cc2ccccc2Cl)o1` (centres unmarked), the “hERG current change (%, negative = inhibition) at 1uM” value is listed as -0.472%.

As for `COc1ccc(CCn2c(O)c(C3=c4ccccc4=NC3=O)sc2=S)cc1OC`, the “hERG current change (%, negative = inhibition) at 1uM” value was determined as 18.8%.

On to `Cn1c(=O)n(C)c2cc(N3CCOCC3)c(NC(=O)c3ccc(F)cc3)cc21`, for which the “hERG current change (%, negative = inhibition) at 1uM” value was found to be 11.3%.

As to `Brc1ccc(-c2nnc3sc(CNC4CCCC4)cn23)cc1`, the “hERG current change (%, negative = inhibition) at 1uM” value is on record as 9.48%.

Turning to `CCN(CC)c1ccc(CC2C(=O)N(C)C(=O)N(C)C2=O)cc1`, the “hERG current change (%, negative = inhibition) at 1uM” value turned out to be 22.1%.

As for `Clc1ccc(-c2nnc(-c3ccccc3)o2)cn1`, the “hERG current change (%, negative = inhibition) at 1uM” value turned out to be 8.12%.

With `CCOc1ccc(NS(=O)(=O)c2ccc3c(c2)CCN3C(C)=O)cc1`, the “hERG current change (%, negative = inhibition) at 1uM” value was 5.99%.

With `Cc1ccccc1C(=O)OC1CCN(C)CC1.Cl`, the “hERG current change (%, negative = inhibition) at 1uM” value was determined as 13%.

Consider `CCC(Sc1ncccc1C(=O)O)C(=O)N1CCCC1` (centres unmarked), for which the “hERG current change (%, negative = inhibition) at 1uM” value is 4.61%.

In the case of `COC(=O)Cc1ccc(NC(=S)N2CCN(CCO)CC2)cc1`, the “hERG current change (%, negative = inhibition) at 1uM” value worked out at 10.9%.

As for `C/C(=N\Nc1ccc(C(F)(F)F)cc1[N+](=O)[O-])C(C)C`, the “hERG current change (%, negative = inhibition) at 1uM” value stood at 18.6%.

Consider `CCCN1C(=O)c2ccccc2NC1c1ccc(O)c(OCC)c1` (centres unmarked), for which the “hERG current change (%, negative = inhibition) at 1uM” value is 16.9%.

With `COc1ccc2c(c1)CC/C(=C\C=C\c1ccccc1)C2=O`, the “hERG current change (%, negative = inhibition) at 1uM” value stood at 11.7%.

Take `O=C(Sc1cccc2cccnc12)c1ccccc1Br`: the “hERG current change (%, negative = inhibition) at 1uM” value amounted to 9.17%.

Regarding `CCOC(=O)c1ccc(NC(=O)c2ccnn2C)cc1`, the “hERG current change (%, negative = inhibition) at 1uM” value is listed as 14.5%.

As for `Cn1nc(C(=O)Nc2nc3ccc(S(C)(=O)=O)cc3s2)ccc1=O`, the “hERG current change (%, negative = inhibition) at 1uM” value is -0.35%.

For the compound `CCn1c(SCC(=O)Nc2ccc(C)cc2)nnc1-c1ccccn1`, the “hERG current change (%, negative = inhibition) at 1uM” value is -21.5%.

`CC(=O)c1cnc2c(-c3ccccc3)c(-c3ccccc3)nn2c1C`: the “hERG current change (%, negative = inhibition) at 1uM” value came to 11.5%.

As to `Cc1cc(Cl)ccc1NC(=S)NCc1ccc(F)cc1`, the “hERG current change (%, negative = inhibition) at 1uM” value turned out to be 12%.

As to `C[C@H]1COc2c(N3CCN(C)CC3)c(F)cc3c(=O)c(C(=O)O)cn1c23`, the “hERG current change (%, negative = inhibition) at 1uM” value was found to be 16.8%.

On to `O=c1oc2ccccc2c(NCc2ccccc2F)c1[N+](=O)[O-]`, for which the “hERG current change (%, negative = inhibition) at 1uM” value is given as 5.89%.

As for `O=[N+]([O-])c1ccc2oc(-c3cccc(O)c3)nc2c1`, the “hERG current change (%, negative = inhibition) at 1uM” value is -5.21%.

Turning to `COc1ccccc1NC(=O)c1cc(Cl)nnc1Cl`, the “hERG current change (%, negative = inhibition) at 1uM” value was determined as 16.9%.

For the compound `Cc1ccc2c(c1)c1n[nH]c(=S)nc1n2CCc1ccccc1`, the “hERG current change (%, negative = inhibition) at 1uM” value came out at 15.2%.

For `CCS(=O)(=O)N1Cc2ccccc2CC1C(=O)Nc1nnc(SCc2ccc(F)cc2)s1` (centres unmarked), the “hERG current change (%, negative = inhibition) at 1uM” value is 9.5%.

Regarding `O=C(Nc1ccncc1)Nc1ccc(F)c(Cl)c1`, the “hERG current change (%, negative = inhibition) at 1uM” value amounted to 5.13%.

In the case of `COCCCN(C(=O)c1cc2c(s1)CCCCC2)c1c(N)n(Cc2ccccc2)c(=O)[nH]c1=O`, the “hERG current change (%, negative = inhibition) at 1uM” value amounted to 15.8%.

With `COc1ccc(-c2c(C)oc3c(CN4CCCCC4C)c(O)ccc3c2=O)cc1OC` (centres unmarked), the “hERG current change (%, negative = inhibition) at 1uM” value stood at 5.43%.

Consider `O=C(O)C(=O)O.O=C(c1ccco1)N1CCN(Cc2ccccc2Br)CC1`, for which the “hERG current change (%, negative = inhibition) at 1uM” value turned out to be 13%.

`CCCc1cc(=O)[nH]c(SCC(=O)N(C)C2CCS(=O)(=O)C2)n1` (centres unmarked): the “hERG current change (%, negative = inhibition) at 1uM” value turned out to be 16.2%.

Take `CCOC(=O)Cc1nnc(-c2ccccc2)o1`: the “hERG current change (%, negative = inhibition) at 1uM” value worked out at 5.78%.

Consider `O=C(O)CCC(=O)Nc1ccc(SSc2ccc(NC(=O)CCC(=O)O)cc2)cc1`, for which the “hERG current change (%, negative = inhibition) at 1uM” value is given as 3.15%.

With `CCCCNC(=O)CSc1nccn1Cc1ccccc1`, the “hERG current change (%, negative = inhibition) at 1uM” value is 3.24%.

Turning to `COc1ccc(/C=N/Nc2nnc(C)n2N)cc1OC`, the “hERG current change (%, negative = inhibition) at 1uM” value came to 16%.

`Cl.c1ccc2c(N3CCNCC3)nsc2c1`: the “hERG current change (%, negative = inhibition) at 1uM” value is 4.28%.

`COc1cc(/C=N\Nc2nc(-c3cccs3)c(NC(C)=O)s2)ccc1O`: the “hERG current change (%, negative = inhibition) at 1uM” value worked out at 7.02%.

With `COc1ccc(-c2nnc(N3CCC(C)CC3)c3ccccc23)cc1`, the “hERG current change (%, negative = inhibition) at 1uM” value is listed as 6.74%.

As to `O=C(c1ccc(CN2CCOCC2)cc1)N1CCN(Cc2ccccc2)CC1`, the “hERG current change (%, negative = inhibition) at 1uM” value amounted to 15.6%.

In the case of `COc1ccc(/C=N/NC(=O)CSc2ccccc2)cc1OC`, the “hERG current change (%, negative = inhibition) at 1uM” value is listed as -3.14%.

Turning to `CCn1c2ccccc2c2cc(CN3CCN(S(C)(=O)=O)CC3)ccc21.O=C(O)C(=O)O`, the “hERG current change (%, negative = inhibition) at 1uM” value is 9.03%.

As for `CCOC(=O)C1(Cc2cccc(OC)c2)CCCN(S(=O)(=O)N(C)C)C1` (centres unmarked), the “hERG current change (%, negative = inhibition) at 1uM” value was found to be 10.7%.

With `CC1=CS(=O)(=O)CC1SC1=Nc2ccccc2[NH2+]1.[Br-]` (centres unmarked), the “hERG current change (%, negative = inhibition) at 1uM” value amounted to 7.34%.

Regarding `COc1ccc(NS(=O)(=O)c2ccc(N/N=C/c3ccc(N4CCOCC4)cc3)c([N+](=O)[O-])c2)cc1`, the “hERG current change (%, negative = inhibition) at 1uM” value was 8.5%.

With `c1ccc2c(c1)OCC(c1nn3c(Cn4nnc5ccccc54)nnc3s1)O2` (centres unmarked), the “hERG current change (%, negative = inhibition) at 1uM” value amounted to 6.48%.

As to `CCn1c2ccccc2c2cc(NC(=O)CNCc3ccccc3OC)ccc21`, the “hERG current change (%, negative = inhibition) at 1uM” value was determined as 13.7%.

`N#CCC(=N)N1CCN(c2ccccc2)CC1`: the “hERG current change (%, negative = inhibition) at 1uM” value is given as 6.41%.

For `Cc1nc2ccccc2c2oc(C(=O)NCc3ccc4c(c3)OCO4)cc12`, the “hERG current change (%, negative = inhibition) at 1uM” value is recorded as 1.72%.

In the case of `N#CC(c1ccc(Cl)cc1)c1cccc(Cl)n1` (centres unmarked), the “hERG current change (%, negative = inhibition) at 1uM” value came to 13.9%.

Regarding `CC(=O)NCC(=O)N[C@@H](CC(=O)OCc1ccccc1)C(=O)OCc1ccccc1` (Ac-Gly-Asp(OBn)-OBn), the “hERG current change (%, negative = inhibition) at 1uM” value stood at 7.23%.

These data come from article PMC4336329 (PLoS ONE, 2015).
